Measured values: the RNAGym collection of RNA variant scans (doi:10.1073/pnas.2313332121)
Variants at the floor of the assay are shown more often than the library holds them.

B1: TPR 5TU (parent)
chain: GGAUCUUCUCGAUCUAACAAAAAAGACAAAUCUGCCACAAAGCUUGAGAGCAUCUUCGGAUGCAGAGGCGGCAGCCUUCGGUGGCGCGAUAGCGCCAACGUUCUCAACUAUGACACGCAAAACGCGUGCUCCGUUGAAUGGAGUUUAUCAUG

Variants of: B1
Experiment: polymerase ribozyme fitness, log enrichment relative to wild type (log ratio); higher = more active; in vitro selection for triplet polymerase activity
Summary of the method: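 For each subunit of a heterodimeric triplet polymerase ribozyme, a mutant library was built by PCR and transcribed, then taken through a single in vitro selection round in triplicate. Selection involved annealing to a biotinylated primer, the partner subunit and triplets, incubation frozen at −7 °C, gel excision of extended constructs, capture on streptavidin beads and RT-PCR. Genotypes were retained after Illumina sequencing of inputs and outputs only with ≥10 input reads and ≥1 read in each output. Fitness is defined as the logarithm of a genotype's enrichment relative to wild-type enrichment, using inverse-variance-weighted averages across replicates, with the logarithm taken to base 2.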

Variant	polymerase ribozyme fitness (log ratio)
A17C A52U C85G C99G G128A	≤ -4.2
A17C A64U C103G A150U	≤ -4.2
A17C A73G U78G C85A A97G C99G A113U C118A G124A G143A	≤ -4.2
A17C A89U	0.471
A17C A122U G141C C149G	≤ -4.2
A17C C18A A39C C99A A119G	≤ -4.2
A17C C27A A52G A60U C69U C85A C95G C125A	≤ -4.2
A17C C27G G48C U82C A106C G124U	≤ -4.2
A17C C27U C38A C85U	-0.305
A17C C27U G71A C93G A113C U134G U151G	≤ -4.2
A17C C27U U33A A47C	≤ -4.2
A17C C32A G58C C96G A142U	≤ -4.2
A17C C32G C43G U53G A66G U101A A137C	≤ -4.2
A17C C32G C54A C76G G80A C93A C96A U111A	≤ -4.2
A17C C36G G50A U77G A89G	≤ -4.2
A17C C36U A39U U77G G80C C96G C149A	≤ -4.2
A17C C57U U82C	-0.0541
A17C C75U G84U C149G	≤ -4.2
A17C C76U C85A U109C A122U	≤ -4.2
A17C C76U C93G U102G C105A	≤ -4.2
A17C C87G C93U C99G	≤ -4.2

Variant	polymerase ribozyme fitness (log ratio)
A17C C93U	-1.02
A17C C95A C103G C108G	≤ -4.2
A17C C95U	0.45
A17C C95U A119U A150G	-1.7
A17C C95U C96U G136A U144C A147U	-0.941
A17C C131G	-3.09
A17C G25C A41U C51A G84C G94U A110G U144C U146G	≤ -4.2
A17C G34U C51U C57A G86A	-4.06
A17C G42A G59A G86U G88U A107U C132U U146C	≤ -4.2
A17C G46A C85A C99G A147U	≤ -4.2
A17C G46A G48C A91U U130G	≤ -4.2
A17C G48C U61G C96A C99U C116U U134G	≤ -4.2
A17C G58U G128A A138U	-4.13
A17C G62U C93G	-3.31
A17C G68A G83A C116A G128A	≤ -4.2
A17C G68C C85G C125U G143C	≤ -4.2
A17C G68C U90C C99G C125G U134A G141A	≤ -4.2
A17C G74U C85A A91G G92C C93G C118A A120C	≤ -4.2
A17C G86U A106C A107U U135C A138U U148A	≤ -4.2
A17C G88A A91G U148A	-4.03
A17C U31C A47C U55A G88C	≤ -4.2

Variant	polymerase ribozyme fitness (log ratio)
A17C U33C G83A G141U	≤ -4.2
A17C U44A C57U C76G C79U C85A A91G C123A	≤ -4.2
A17C U44G G50A C87G C131A	≤ -4.2
A17C U44G U61G	≤ -4.2
A17C U53A G71C G83A A91U C93A C108U U127G	≤ -4.2
A17C U55A G59A A60G C96A G143U	-3.41
A17C U61C C131G G143A	≤ -4.2
A17C U77C G92C	≤ -4.2
A17C U78G G92U C93A	≤ -4.2
A17G	0.0905
A17G A19U	0.00969
A17G A19U A21U A30C G50A G59A	≤ -4.2
A17G A19U C93U U102C G136A U148A	≤ -4.2
A17G A20C A29G A47U C72A A97C A121G A137C G140U	≤ -4.2
A17G A20C A30G G46A G59U G67C G68U G70U C96G	≤ -4.2
A17G A20C A52G A89G U148C	≤ -4.2
A17G A20C G50C C75U U148G	≤ -4.2
A17G A20U A24U A40C G42C U44A G94A A150G	≤ -4.2
A17G A20U A37G U53G A98U A106U G126C G136C G143U	≤ -4.2
A17G A20U C43A G46U U55A C57U C72A G94A	≤ -4.2
A17G A20U U45A U90G	≤ -4.2

Variant	polymerase ribozyme fitness (log ratio)
A17G A21C A24C A26G C27G G71C G83C	≤ -4.2
A17G A21C C116U	0.03
A17G A22C G48U G50C G65A A73U G94C C105U U146A	≤ -4.2
A17G A22C G128U G133C	≤ -4.2
A17G A22C U31G C69G A73G C75G C79G G88U A98U	≤ -4.2
A17G A22G U82C C99A	-2.88
A17G A22U A28U C51U A52U C93A U104G A106G U111G G133U G152A	≤ -4.2
A17G A22U G88U U144G	≤ -4.2
A17G A23G G48C A91U U104A	≤ -4.2
A17G A23U A24G A28C A29C C43U G62C G70A C85G G86A	≤ -4.2
A17G A23U A26G G86A G88U	≤ -4.2
A17G A23U U55G A66C	≤ -4.2
A17G A24C A41C G68A G94A U111A	≤ -4.2
A17G A24C A41U A91U A98G	≤ -4.2
A17G A24U A26U G58A	-4.02
A17G A24U A37C A41U G84A U101C C105A U111G C118U	≤ -4.2
A17G A26C C54U G58C C85A	≤ -4.2
A17G A28U A41C A52G U77G G86C	≤ -4.2
A17G A28U C32U A39U C57A C95A A110G U144C A147G A150C	≤ -4.2
A17G A29U C72A G81U G83U C108U G133U	≤ -4.2
